Results reported in patent US20050059584A1, “Novel chemokine mimetics synthesis and their use” (priority 2002, published 2005).
Positions of bridges follow the written chain, without caps; N, C: chain ends.

Key:
Mature Granulocyte = test: 3H-thymidine killing of mature granulocyte bone marrow cells; assay type: cell-based, human; settings: Table 5, no drug 48 +/− 3
Primitive CFU-GM = test: 3H-thymidine suicide assay of primitive CFU-GM in adherent layer of human LTC (Table 7); assay type: cell-based; settings: 1 μg/ml, None: 44 +/− 3
Text: (§1) Primitive high proliferative potential colony forming cells (HHP-CFC) in an adherent layer in culture are usually in a quiescent state. This long term culture (LTC) is established seven to ten days after initiation of the LTC. The cells may be stimulated to proliferate by the addition of fresh medium. Both BFU-E (burst forming unit—erythroid precursor) cells and CFU-GM (colony forming unit—granulocyte-monocyte common precursor) cells of LTC may be maintained in a quiescent state by the mesenchymally derived stromal cells in an adherent layer, but can be reversibly stimulated into the cycle by the addition of fresh media. The ability of CXCR4 agonists such as SDF-1 and SDF-1 polypeptides to overcome this activation may be determined by adding it to the LTC during the medium change. Rapidly dividing cells will accumulate proportionally more of a cytotoxic agent, such as radioactive thymidine, and as a result are preferentially killed.
(§2) The results depicted in Table 7 illustrate the ability of SDF-1, and SDF-1(1-14)-(G)4-SDF-1(55-67)-Lys20/Glu24-cyclic amide (SEQ ID NO:809) and SDF-1(1-14)-(G)4-SDF-1(55-67) acid (SEQ ID NO:806) to repress the proliferation of clonogenic erythroid and granulopoitic progenitors (which differentiate into erythrocytes, platelets, monocytes/macrophages and neutrophils) in an in vitro LTC-IC (long-term culture-initiating cells) assay. […]

leukocytes (neutrophils) = test: mobilization of leukocytes (neutrophils) in mice (Table 8); assay type: in vivo, mouse (Balb/C); settings: 25 mg/kg i.v.
Method: Compound A was injected intravenously into Balb/C mice at 25 mg/kg. To obtain the data in Table 8, blood was collected through cardiac puncture and counted for the increase in white blood cells, and platelets.

plasma half life = settings: in vivo
Primitive BFU-E = test: 3H-thymidine suicide assay of primitive BFU-E in adherent layer of human LTC (Table 7); assay type: cell-based; settings: 1 μg/ml, None: 48 +/− 4
Text: as §1, §2

H2N-Lys-Pro-Val-Ser-Leu-Ser-Tyr-Arg-Cys-Pro-Cys-Arg-Phe-Phe-[Gly-Gly-Gly-Gly]-Leu-Lys-Trp-Ile-Gln-Glu-Tyr-Leu-Glu-Lys-Ala-Leu-Asn-NH2 (H-KPVSLSYRCPCRFFGGGGLKWIQEYLEKALN-NH2; lactam 20-24; cysteine pairing not given here) [Compound A]
% CELL KILLED (Mature Granulocyte): 39 +/− 5% | % CELL KILLED after 3H-Thymidine (Primitive CFU-GM): 0 +/− 3% | Neutrophils (leukocytes (neutrophils); Day 2, untreated day 0: 0.968 +/− 0.311): 3.159 +/− 0.761 10^9/l | Lymphocytes (leukocytes (neutrophils); Day 2, untreated day 0: 4.78 +/− 0.88): 3.15 +/− 1.075 10^9/l | Platelets (leukocytes (neutrophils); Day 2, untreated day 0: 1099 +/− 50): 1044 +/− 65 10^9/l | Lymphocytes (leukocytes (neutrophils); Day 3): 3.371 +/− 1.113 10^9/l | Neutrophils (leukocytes (neutrophils); Day 3): 3.209 +/− 0.735 10^9/l | Platelets (leukocytes (neutrophils); Day 3): 977 +/− 152 10^9/l | Neutrophils (leukocytes (neutrophils); Day 5, untreated day 5: 0.893 +/− 0.371): 1.592 +/− 0.961 10^9/l | Lymphocytes (leukocytes (neutrophils); Day 5, untreated day 5: 6.540 +/− 0.970): 5.325 +/− 0.771 10^9/l | Platelets (leukocytes (neutrophils); Day 5, untreated day 5: 937 +/− 169): 882 +/− 88 10^9/l | Lymphocytes (leukocytes (neutrophils); Day 8): 4.072 +/− 1.386 10^9/l | Neutrophils (leukocytes (neutrophils); Day 8): 2.513 +/− 2.733 10^9/l | Platelets (leukocytes (neutrophils); Day 8): 1111 +/− 124 10^9/l | plasma half life (plasma half life): not more than 2 hours | % CELL KILLED after 3H-Thymidine (Primitive BFU-E): 2 +/− 4%
